Assay results published in PMC12136788.
Some of the results follow.

T1: UNK ZnF1-3 (human, UniProt Q9C0B0 31-174)
T1 sequence: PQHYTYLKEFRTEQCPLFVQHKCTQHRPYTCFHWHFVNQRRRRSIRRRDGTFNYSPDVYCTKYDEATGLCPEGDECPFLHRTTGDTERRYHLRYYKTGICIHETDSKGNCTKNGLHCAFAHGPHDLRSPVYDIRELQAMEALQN

B1: chr9:42776281:42776282:-_ENSMUSG00000059495_ENSMUST00000165665|mus_mus|FALSE|FALSE (ssRNA)
RNA: GGGAGUUCUACAGUCCGACGAUCAAACCUCCUCAAGUCUGCAACUCUCCCACCCACCCCCCAUAGCACCCCCACCACCACUAAGCAUUCCAUUCCUUUGUUCCUAUUUCCUGCUCACUCUGCAGGGAAUAUUUCAUACAAGUGCAACAGAGGAUUGAGCAUCA
B2: 21971185_22002819_1936_CDS_ENSG00000078403_ENST00000307729|human|control|control (ssRNA)
RNA: GGGAGUUCUACAGUCCGACGAUCUUGUUGCAAAUGCCCAGAAGACUGCUGAGGUAAGUGAGAGCUGGAGACAGGAGUACUAGAUCCCGAGCCAGAUACUACAUUUGGAAACGAUACUGCUACAUCAUUGCUGUUAUAAAUACCCAACAGAGGAUUGAGCAUCA
B3: 117817058_117819199_2538_CDS_ENSMUSG00000033326_ENSMUST00000106406|mouse|control|control (ssRNA)
RNA: GGGAGUUCUACAGUCCGACGAUCUGCCACUGCACAUGAAACAUGAACCCAUCUGUCGUCAUUGGCUCUCUGCAGGGCCCCUCCACGCAACGAGCAUAAGCAGCAGUCUUCCUCCAGGGCAUUGGCUGAACAUCGAGAGCACAUCAACAGAGGAUUGAGCAUCA
B4: 120681885_120682005_713_CDS_ENSMUSG00000025153_ENSMUST00000055655|mouse|control|control (ssRNA)
RNA: GGGAGUUCUACAGUCCGACGAUCCAUGCCCAGCUUCAUGAACUGCACAGAGGUGUUCGGCUUCAGGAGCAGGUUGAUCCCACCCACAAGGGCCGCGGGGCAUUCCCCACUACGGAUGGCCUGGUAGGCAUUCUGUAGUGCCAGCAACAGAGGAUUGAGCAUCA
B5: chr15:93570553:93570554:+_ENSG00000173575_ENST00000394196|hu_mus|FALSE|FALSE (ssRNA)
RNA: GGGAGUUCUACAGUCCGACGAUCUCGUUUUCUAGGGCCACAGUGCAUCAUAGGACUUCAGGACUUGACAACAUUCACACAUAACUUCCUCCAAGUCCUGCCACUUCCUCAAUGAUGAGCAGCUGCCCAAAGCCAGGCCCCACACAACAGAGGAUUGAGCAUCA
B6: chr11:121178941:121178942:+_ENSG00000109929_ENST00000392789|hu_hu|motif|central (ssRNA)
RNA: GGGAGUUCUACAGUCCGACGAUCACAUAUUUUUACUCUUAUUAAAUAAUGGUUUUAAAUAAUAAUCAUCACAAUGUUUAGCGGCAUAAUCCCAGAUCUGGAUUAAAUCAUGGUGAUAUCGAUAUUUUUAAAUUCCAAUUUAUUCAACAGAGGAUUGAGCAUCA

molecular target: T1, UNK ZnF1-3; assay: nsRBNS (natural sequence RNA bind-n-seq); RBNS binding buffer (assumed for nsRBNS): 25 mM Tris pH 7.5, 150 mM KCl, 3 mM MgCl2, 0.01% Triton X-100, 500 ug/ml BSA, 20 U/ml SUPERase-In, 4 C; UNK is unkempt and MSI1 is Musashi-1; names of the RNAs are library labels; protein concentration not given here; high values mean tight binding

Binder | binding signal [enrichment R]
B1 | 0.778
B2 | 1.42
B3 | 1.17
B4 | 0.929
B5 | 0.79
B6 | 1.38
